Screen size: about 310,000 compounds; about 14,000 (4.5%) showed an effect of 50% or more. Effects have a minus sign here. The list shows a part of the results.
Target: human ether-à-go-go-related gene (hERG) potassium channel (human, UniProt Q12809)
Assay: primary screen, population patch clamp on CHO cells stably expressing hERG
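Note: peak tail current of the secondary pulse compared with the same well before compound.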

human ether-à-go-go-related gene (hERG) potassium channel, sequence (Q12809 whole entry, looked up): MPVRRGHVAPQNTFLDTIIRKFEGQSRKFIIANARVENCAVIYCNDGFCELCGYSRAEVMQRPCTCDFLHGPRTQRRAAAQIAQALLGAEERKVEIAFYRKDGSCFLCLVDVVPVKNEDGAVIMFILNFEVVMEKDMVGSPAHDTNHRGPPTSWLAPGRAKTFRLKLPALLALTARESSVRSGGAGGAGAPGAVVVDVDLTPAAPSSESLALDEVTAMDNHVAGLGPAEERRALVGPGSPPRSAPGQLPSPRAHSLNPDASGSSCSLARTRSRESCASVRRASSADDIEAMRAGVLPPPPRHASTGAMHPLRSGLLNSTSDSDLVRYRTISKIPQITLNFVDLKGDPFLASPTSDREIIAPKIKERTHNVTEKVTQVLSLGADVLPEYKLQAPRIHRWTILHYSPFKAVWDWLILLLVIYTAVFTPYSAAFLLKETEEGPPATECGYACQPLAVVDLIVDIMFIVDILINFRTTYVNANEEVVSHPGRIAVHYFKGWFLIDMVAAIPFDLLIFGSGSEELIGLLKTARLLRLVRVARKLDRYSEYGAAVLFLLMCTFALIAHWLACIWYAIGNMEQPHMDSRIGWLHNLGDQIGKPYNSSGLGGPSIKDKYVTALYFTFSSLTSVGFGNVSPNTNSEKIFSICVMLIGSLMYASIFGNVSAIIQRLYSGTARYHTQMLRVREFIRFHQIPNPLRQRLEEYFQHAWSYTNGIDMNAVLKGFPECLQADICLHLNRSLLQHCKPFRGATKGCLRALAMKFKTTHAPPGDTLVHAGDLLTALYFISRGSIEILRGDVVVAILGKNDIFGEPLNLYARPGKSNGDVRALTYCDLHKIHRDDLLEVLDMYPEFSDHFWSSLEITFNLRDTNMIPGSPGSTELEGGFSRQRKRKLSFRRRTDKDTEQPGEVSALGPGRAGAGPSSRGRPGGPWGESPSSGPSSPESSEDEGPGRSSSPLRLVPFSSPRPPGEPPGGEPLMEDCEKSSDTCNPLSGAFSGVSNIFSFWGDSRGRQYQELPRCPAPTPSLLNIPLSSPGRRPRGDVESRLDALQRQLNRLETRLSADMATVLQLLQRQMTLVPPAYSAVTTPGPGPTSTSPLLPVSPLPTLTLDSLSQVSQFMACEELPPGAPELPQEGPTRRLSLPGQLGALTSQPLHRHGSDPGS

Structure (SMILES)	hERG current change (%, negative = inhibition) at 10uM [%]
O=C1CSC(c2ccc(F)cc2)N1c1c(F)cccc1F (centres unmarked)	4.06
COc1ccc(NC(=O)C2CCCN(S(C)(=O)=O)C2)cc1Cl (centres unmarked)	10.2
COc1ccc(N(CC(=O)Nc2ccc(OC)c(OC)c2)S(=O)(=O)c2ccccc2)cc1Cl	10.2
CCCc1nc(NC(C)=O)c(C#N)c(-c2ccco2)c1CC	-8.93
CCOC(=O)c1ccc(NC(=O)c2cc(C)nn2-c2ccccc2)cc1	-7.01
c1ccc(Nc2nc(CSc3ncn[nH]3)cs2)cc1	7.09
Cc1ccccc1OCC(=O)OCC(=O)Nc1ccc2c(c1)OCCO2	5.44
CCOCc1c(C(=O)Nc2ccc3nc(N4CCOCC4)sc3c2)oc2ccccc12	-29.4
c1cc(C2N3CCCN2CC3)ccn1 (centres unmarked)	17.7
O=C(N/N=C/c1ccsc1)c1c[nH]c2ccccc12	-17.3
COc1ccc(C(C)n2c(C)c3c(C)nnc(C)c3c2C)cc1 (centres unmarked)	-57.9
O=C(CSc1ccc(-c2nc3ccccc3[nH]2)cn1)Nc1ccc(S(=O)(=O)NC2CC2)cc1	-1.46
CCCOn1nnnc1-c1ccccc1	7.37
Cc1c(NC(=O)COC(=O)C23CC4CC(CC(O)(C4)C2)C3)c(=O)n(-c2ccccc2)n1C	10.1
O=C(CSc1nc(C2CC2)nc2ccccc12)N1c2ccccc2Sc2ccccc21	7.02
CC(C)(C)c1ccc(S(=O)(=O)NCc2ccc(C(=O)NCc3ccccn3)cc2)cc1	-25.8
Cc1sc2nc(SCC(=O)N(C)C)[nH]c(=O)c2c1C	7.08
Cc1ccc(S(=O)(=O)NC(C)C(=O)OCC(=O)N(C)c2ccccc2)cc1 (centres unmarked)	1.95
CCOC(=O)C1CCN(C(=O)c2cccc(S(=O)(=O)N3c4ccccc4CC3C)c2)CC1 (centres unmarked)	-35.7
Cc1cc2ccccn2c1C(=O)c1ccc(Cl)cc1	-6.01
CCN(CC)CCCNC(=O)C1c2ccccc2C(=O)N(CCOC)C1c1ccc(F)cc1 (centres unmarked)	14.9
CC(=O)c1ccc(N(CC(=O)NC2CCCC2)C(=O)c2csnn2)cc1	13.8

Structure (SMILES)	hERG current change (%, negative = inhibition) at 10uM [%]
CCOc1ccc(-c2ccc3nnc(SCC(=O)NCC4CCCO4)n3n2)cc1 (centres unmarked)	-10.6
O=C(Nc1ccccc1C(F)(F)F)c1ccsc1	7.46
CC(Cl)c1cc(-c2ncc(C(F)(F)F)cc2Cl)no1 (centres unmarked)	-6.19
COc1ccccc1CNC(=O)C1Cc2ccccc2C(=O)O1 (centres unmarked)	-2.06
CCCCn1c(=S)[nH]c2ncccc2c1=O	10.5
CCc1ccc(/C=C/c2c([N+](=O)[O-])c(=O)n(C)c(=O)n2C)cc1	-34.2
COc1ccc(S(=O)(=O)NCCc2cn3nc(C)c(C)nc3n2)cc1C	19.2
Cc1cc(OCCCC(=O)Nc2nnc(C3CC3)s2)ccc1Cl	20.1
CC(C)[C@@H](C(=O)NCC1CCCO1)N1C(=O)N2CCc3c([nH]c4ccccc34)[C@@]2(C)C1=O (some centres unmarked)	-11.8
CC(=O)N(C)c1ccc(NC(=O)C(c2ccccc2)c2ccccc2)cc1	-0.26
CCOc1ccc(OCCOCCN2CCOCC2)cc1.O=C(O)C(=O)O	0.827
O=C(C1=C[C@@H]2[C@H]3C(=O)N(c4ccccc4Cl)C(=O)[C@H]3[C@@H](C(=O)c3ccc(Cl)cc3)N2C=C1)c1ccccc1	6.86
CS(=O)(=O)N1CCN(c2ccccc2F)CC1	9.76
COc1cccc(C2c3[nH]c4ccccc4c3CCN2Cc2cnc(C)s2)c1OC (centres unmarked)	2.51
Cc1nn(C)c(C)c1CNC(=O)Nc1cccc(Cl)c1C	1.35
CCCCN(C)CCC(=O)Nc1ccc(Cl)cc1.Cl	-44.6
N/C(=N\OC(=O)CCc1ccccc1)c1ccccc1Cl	0.158
Cc1cccc(C)c1OCc1nnc(SCC(=O)NCc2ccccc2)o1	-26.2
C(=N\N1CCN(C2c3ccccc3-c3ccccc32)CC1)/c1cccs1	3.72
Cc1onc(-c2ccccc2)c1C(=O)N1CCN(c2ncccc2C(F)(F)F)CC1	-14.6
C/C(=N/NC(=O)c1cccs1)c1cccc(N)c1	33
CCN(CC)c1ccc(S(=O)(=O)N(CC)CC)cc1NC(=O)C1CCCC1	-13.6

— PMC4336329 (PLoS ONE, 2015)
